In this series the test system is C3A cells. Description: Inhibition of CoA biosynthesis, [3H]pantothenate metabolic labeling.

Turning to `CSc1cccc(NC(=O)CCc2c(C)nc3c4cccnc4nn3c2C)c1` [Compound 7], the “effect on cell viability” value (C3A cells, at the concentrations used in the labeling experiment) is “no effect on cell viability”. The “[3H]pantothenate incorporation into CoA” value (cultured C3A cells) was “dose-dependent decrease”. Further, the half-maximal inhibitory concentration (IC50) (read-out: apparent IC50, inhibition of CoA biosynthesis, C3A cells labeled with [3H]pantothenate for 24 h) is 900 ± 110 nM.

Broadly, the IC50 is the concentration needed to halve the response being measured.

Values taken from article PMC4357395 (Journal of Medicinal Chemistry, 2015).
